Source: article PMC3139598
Positions count from the first letter of the chain named. No constants are given. Whether binding was seen depends on the method and setting. Binding seen in cells or lysates may run through a third protein. Some entries that bind do so weakly or less than the wild type. Tags and fused reporters may be left off the sequences shown.

Tests used:
Assay in all cases: co-IP; N2a cells co-transfected with pcDNA3-APP695 and FLAG-X11L proteins, FLAG-X11 or FLAG-X11L2; lysis in HBS-T (10 mM HEPES pH 7.6, 150 mM NaCl, 5 mM EDTA, 0.5% Triton X-100); immunoprecipitation with anti-FLAG antibody at 4°C for 2 h, protein G-Sepharose; blot with anti-APP/C and anti-FLAG
[1] = target: T1, FLAG-X11 (human X11) (human) (UniProt Q02410)
T1 sequence: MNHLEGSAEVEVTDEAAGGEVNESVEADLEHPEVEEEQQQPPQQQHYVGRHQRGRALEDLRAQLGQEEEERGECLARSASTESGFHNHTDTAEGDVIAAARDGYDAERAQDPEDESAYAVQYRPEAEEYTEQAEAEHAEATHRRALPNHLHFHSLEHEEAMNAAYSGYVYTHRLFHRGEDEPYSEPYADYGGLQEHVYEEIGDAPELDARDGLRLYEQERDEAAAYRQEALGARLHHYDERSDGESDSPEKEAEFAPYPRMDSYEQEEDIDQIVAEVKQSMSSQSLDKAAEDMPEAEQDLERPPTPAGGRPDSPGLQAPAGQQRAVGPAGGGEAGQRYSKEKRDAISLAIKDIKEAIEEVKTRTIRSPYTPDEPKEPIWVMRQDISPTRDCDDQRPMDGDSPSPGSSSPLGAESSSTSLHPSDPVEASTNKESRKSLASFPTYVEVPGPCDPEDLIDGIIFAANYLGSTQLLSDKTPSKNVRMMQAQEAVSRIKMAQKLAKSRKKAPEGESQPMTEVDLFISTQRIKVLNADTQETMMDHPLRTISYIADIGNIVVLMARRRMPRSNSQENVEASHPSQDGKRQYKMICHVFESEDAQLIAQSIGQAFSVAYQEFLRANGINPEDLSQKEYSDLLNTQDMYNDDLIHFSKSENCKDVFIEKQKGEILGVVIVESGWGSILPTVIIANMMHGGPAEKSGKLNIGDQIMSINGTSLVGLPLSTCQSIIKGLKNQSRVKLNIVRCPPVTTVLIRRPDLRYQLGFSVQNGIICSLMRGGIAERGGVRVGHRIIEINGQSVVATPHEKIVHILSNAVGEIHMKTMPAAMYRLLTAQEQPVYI

[2] = target: T2, FLAG-X11L (human X11-like, entire) (human) (UniProt Q99767)
T2 sequence: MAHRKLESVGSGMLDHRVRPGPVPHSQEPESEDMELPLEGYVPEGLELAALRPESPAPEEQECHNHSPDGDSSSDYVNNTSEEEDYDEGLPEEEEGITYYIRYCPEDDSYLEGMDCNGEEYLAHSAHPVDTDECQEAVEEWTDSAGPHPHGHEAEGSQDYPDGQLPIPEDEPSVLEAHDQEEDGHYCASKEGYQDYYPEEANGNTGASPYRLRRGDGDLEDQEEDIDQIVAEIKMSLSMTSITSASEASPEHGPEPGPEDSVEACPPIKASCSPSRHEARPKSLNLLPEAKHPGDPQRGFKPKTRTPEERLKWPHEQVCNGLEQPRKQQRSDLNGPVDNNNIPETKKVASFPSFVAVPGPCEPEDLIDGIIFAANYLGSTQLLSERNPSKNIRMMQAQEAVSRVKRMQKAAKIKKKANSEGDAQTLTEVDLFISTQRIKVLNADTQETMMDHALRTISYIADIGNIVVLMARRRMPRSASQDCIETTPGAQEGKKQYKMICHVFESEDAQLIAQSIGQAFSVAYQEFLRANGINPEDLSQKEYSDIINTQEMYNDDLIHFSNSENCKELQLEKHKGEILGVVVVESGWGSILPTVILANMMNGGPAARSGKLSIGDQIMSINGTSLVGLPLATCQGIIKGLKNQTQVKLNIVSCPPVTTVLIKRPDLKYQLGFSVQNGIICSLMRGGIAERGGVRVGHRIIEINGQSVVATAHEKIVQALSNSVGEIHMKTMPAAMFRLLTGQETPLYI

[3] = target: T3, FLAG-X11L-ΔPTB (deletion of amino acids 369 to 555) (human) (UniProt Q99767)
T3 sequence: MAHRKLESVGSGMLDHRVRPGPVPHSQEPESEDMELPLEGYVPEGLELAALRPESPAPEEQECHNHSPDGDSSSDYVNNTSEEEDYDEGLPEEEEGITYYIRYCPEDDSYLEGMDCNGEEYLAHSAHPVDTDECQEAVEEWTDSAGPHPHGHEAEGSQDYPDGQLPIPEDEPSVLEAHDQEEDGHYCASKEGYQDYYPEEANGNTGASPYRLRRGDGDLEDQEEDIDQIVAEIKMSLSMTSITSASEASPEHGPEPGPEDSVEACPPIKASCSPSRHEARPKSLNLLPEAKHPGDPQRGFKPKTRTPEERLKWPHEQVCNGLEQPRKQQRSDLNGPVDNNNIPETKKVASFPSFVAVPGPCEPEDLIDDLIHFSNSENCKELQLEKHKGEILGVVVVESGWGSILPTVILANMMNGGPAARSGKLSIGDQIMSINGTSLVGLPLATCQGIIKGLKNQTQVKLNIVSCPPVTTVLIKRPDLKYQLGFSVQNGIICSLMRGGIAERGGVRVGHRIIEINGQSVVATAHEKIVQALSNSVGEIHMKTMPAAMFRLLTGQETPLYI

[4] = target: T4, FLAG-X11L2 (human X11L2) (human) (UniProt O96018)
T4 sequence: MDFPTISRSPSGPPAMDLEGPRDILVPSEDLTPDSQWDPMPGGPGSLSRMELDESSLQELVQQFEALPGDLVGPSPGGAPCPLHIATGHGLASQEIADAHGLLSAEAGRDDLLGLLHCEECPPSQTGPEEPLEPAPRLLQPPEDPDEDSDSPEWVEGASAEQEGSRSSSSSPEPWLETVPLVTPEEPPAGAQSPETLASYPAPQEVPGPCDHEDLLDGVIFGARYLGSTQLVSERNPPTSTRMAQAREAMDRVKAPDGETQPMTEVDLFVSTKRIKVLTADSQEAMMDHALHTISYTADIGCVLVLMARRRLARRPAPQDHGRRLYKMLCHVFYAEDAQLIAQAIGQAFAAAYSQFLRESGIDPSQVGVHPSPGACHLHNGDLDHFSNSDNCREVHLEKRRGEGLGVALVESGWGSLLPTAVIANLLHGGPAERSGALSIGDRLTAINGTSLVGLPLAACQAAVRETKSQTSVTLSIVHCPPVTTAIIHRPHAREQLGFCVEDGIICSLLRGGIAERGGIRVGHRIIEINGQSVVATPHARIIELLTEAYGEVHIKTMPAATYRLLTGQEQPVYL

[5] = target: T5, FLAG-X11L-PTB (amino acids 369 to 555) (human) (UniProt Q99767)
T5 sequence: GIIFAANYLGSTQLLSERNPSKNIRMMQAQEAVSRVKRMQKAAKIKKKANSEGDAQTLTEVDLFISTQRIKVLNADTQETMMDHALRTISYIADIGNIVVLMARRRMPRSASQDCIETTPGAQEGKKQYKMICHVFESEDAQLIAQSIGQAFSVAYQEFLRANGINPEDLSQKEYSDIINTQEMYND

[6] = target: T6, FLAG-X11L-C (carboxyl-terminal amino acids 556 to 749) (human) (UniProt Q99767)
T6 sequence: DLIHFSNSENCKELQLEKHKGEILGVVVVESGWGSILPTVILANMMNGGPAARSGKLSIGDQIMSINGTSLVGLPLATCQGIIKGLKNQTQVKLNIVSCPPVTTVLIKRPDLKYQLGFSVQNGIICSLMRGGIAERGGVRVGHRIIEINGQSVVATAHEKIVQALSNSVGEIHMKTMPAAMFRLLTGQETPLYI

[7] = target: T7, FLAG-X11L F520V (Phe to Val mutation at amino acid 520) (human) (UniProt Q99767)
T7 sequence: T2 sequence with F520V

With “amyloid β-protein precursor APP695 (untagged, from pcDNA3-APP695) (from UniProt P05067-4 18-695)” the binding [1] was “binds”, the binding [2] was “binds” and the binding [3] was “no binding”. For the same substance, the binding [4] was “binds”, the binding [5] was “binds” and the binding [6] was “no binding”. For the same substance, the binding [7] was “no binding”.
